From patent EP1780277A1 (YEDA RESEARCH AND DEVELOPMENT COMPANY, LTD., dated 2007)

Molecular target: T1, flag-IR1B4 fusion protein, [35S]methionine-labeled in vitro translation product (human, UniProt Q99873, 35S-methionine label)
T1 construct: Translated in rabbit reticulocyte lysate; for one co-precipitation expressed in Cos-7 cells; also called IR1B4-flag; IRIB4-flag
Test: GST pull-down of 35S-labeled in vitro translated protein, SDS-PAGE

binding result: no binding
B1: GST alone (other)
chain: not shown
notes: Control held on glutathione beads; also called Glutathione S-transferase
